# According to publication PMC4336329 (PLoS ONE, 2015):
# Out of some 310,000 compounds screened, about 14,000 (4.5%) showed an effect of 50% or more. Effects have a minus sign here. The list shows a part of the results.
# Molecular target: human ether-à-go-go-related gene (hERG) potassium channel (human, UniProt Q12809)
# Assay: primary screen, population patch clamp on CHO cells stably expressing hERG
# Method: Briefly, Chinese hamster ovary (CHO) cells stably expressing the hERG channel were dislodged from tissue culture flasks and dispensed into PPC plates. […] During the recording, background leak currents were estimated by a 100 ms step to -80 mV from an initial holding potential of -70 mV and subtracted from the subsequent current measurement. The campaign was conducted in two phases using slight differences in recording protocol. In the first phase, the initial voltage pulse used a 100 ms step to -30 mV from a holding potential of -70 mV, a 2 s conditioning step to +25 mV, and a 2 s test step to -30 mV. During the second phase of the screen, the potential during the conditioning step was raised to +45 mV. In both phases of the campaign, a secondary voltage pulse was applied using the same parameters as the second phase initial pulse. The initial and secondary pulses were applied in the absence of compound, and upon application of 1 μM and 10 μM test concentrations. […]
# 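Also: peak tail current of the secondary pulse compared with the same well before compound.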
# human ether-à-go-go-related gene (hERG) potassium channel, sequence (Q12809 whole entry, looked up): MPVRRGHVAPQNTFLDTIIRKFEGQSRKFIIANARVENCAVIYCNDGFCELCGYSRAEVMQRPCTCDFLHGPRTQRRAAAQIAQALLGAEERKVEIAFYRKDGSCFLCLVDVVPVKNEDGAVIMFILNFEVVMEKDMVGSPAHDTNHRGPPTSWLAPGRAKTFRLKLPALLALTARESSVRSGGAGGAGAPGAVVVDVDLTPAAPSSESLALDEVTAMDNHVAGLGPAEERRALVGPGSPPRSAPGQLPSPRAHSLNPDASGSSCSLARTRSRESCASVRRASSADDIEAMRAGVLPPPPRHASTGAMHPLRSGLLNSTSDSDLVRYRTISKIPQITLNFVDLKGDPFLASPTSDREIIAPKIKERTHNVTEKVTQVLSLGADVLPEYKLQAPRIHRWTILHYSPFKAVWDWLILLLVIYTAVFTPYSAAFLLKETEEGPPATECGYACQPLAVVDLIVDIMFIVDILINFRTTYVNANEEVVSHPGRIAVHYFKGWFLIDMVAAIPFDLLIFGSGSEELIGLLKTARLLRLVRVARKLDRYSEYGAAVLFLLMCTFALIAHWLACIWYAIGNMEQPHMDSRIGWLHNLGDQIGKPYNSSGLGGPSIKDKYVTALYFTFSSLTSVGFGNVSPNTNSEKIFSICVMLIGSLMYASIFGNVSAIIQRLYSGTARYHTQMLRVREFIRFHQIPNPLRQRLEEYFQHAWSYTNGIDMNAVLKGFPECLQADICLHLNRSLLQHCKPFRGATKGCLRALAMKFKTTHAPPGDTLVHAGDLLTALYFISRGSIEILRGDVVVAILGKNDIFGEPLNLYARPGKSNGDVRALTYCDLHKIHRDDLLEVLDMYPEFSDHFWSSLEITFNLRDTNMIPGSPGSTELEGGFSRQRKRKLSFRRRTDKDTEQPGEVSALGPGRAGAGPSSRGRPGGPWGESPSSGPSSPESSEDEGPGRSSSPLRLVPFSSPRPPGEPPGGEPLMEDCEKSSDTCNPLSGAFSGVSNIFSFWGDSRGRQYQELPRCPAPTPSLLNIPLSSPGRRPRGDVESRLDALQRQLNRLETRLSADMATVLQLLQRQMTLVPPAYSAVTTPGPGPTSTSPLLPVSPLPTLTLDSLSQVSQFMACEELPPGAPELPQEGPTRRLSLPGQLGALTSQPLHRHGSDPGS
row,Compound,"hERG current change (%, negative = inhibition) at 10uM [%]"
1,CN(CC(=O)Nc1ccc(Cl)c(C(F)(F)F)c1)C(=O)c1cccc2cccnc12,-28.8
2,Cc1nc(COc2cc3oc(=O)cc(C)c3cc2Cl)cs1,23.9
3,COc1ccc(C/C(C)=N/NC(=S)Nc2ccccc2F)cc1,15.6
4,COc1cccc(CN2CCN(C(=O)COc3ccc4ccccc4c3)CC2)c1,-38.7
5,COC(=O)C1CN(C(=O)C(C)Oc2ccccc2Cl)c2ccccc2O1 (stereo not drawn),-5.05
6,CCOc1ccccc1NC(=O)CN(C)S(=O)(=O)c1ccc(OC)c(C)c1,-17.1
7,COC(=O)C1=C(c2cccc(C#N)c2)C[C@@H]2CC[C@H]1N2C(=O)NC1Cc2ccccc2C1,-27.8
8,N#Cc1ccccc1S(=O)(=O)N1CCN(c2ccc(S(=O)(=O)N3CCOCC3)cn2)CC1,-5.93
9,O=C(O)CSc1cccnc1Sc1ccc(Cl)cc1,-3.14
10,Cn1c(S(=O)(=O)Cc2ccc(Cl)cc2)nc2ccccc21,-10.5
11,Cc1cc(NC(=O)c2ccc(NC(=O)C(C)C)cc2)no1,-3.1
12,CN(C(=O)c1ccco1)c1nnc(-c2ccc(F)cc2)s1,4
13,Cc1cc(O)c(NC(=O)c2ccc(Br)o2)cc1C,-7.04
14,COc1ccc(C(=O)NNC(=O)CSc2nnc(-c3cccnc3)n2C)cc1,6.7
15,Cc1[nH]n(-c2ccccc2)c(=O)c1C(c1cccc([N+](=O)[O-])c1O)c1c(C)[nH]n(-c2ccccc2)c1=O,-8.12
16,O=C(c1ccc(Cl)cc1)N1C2C=CC(C2)C1(C(F)(F)F)C(F)(F)F (stereo not drawn),2.47
17,CN(C)C=C1C(=O)N(C2CCCCC2)C(=O)N(C2CCCCC2)C1=O,-4.34
18,Cn1cccc1C(=O)NNC(=O)COc1ccc(C#N)cc1,-4.5
19,Cc1cccc2sc(N(CCCN(C)C)C(=O)CCc3ccccc3)nc12.Cl,-54.1

row,Compound,"hERG current change (%, negative = inhibition) at 10uM [%]"
1,CC1(C)CSC(=NCCc2ccccc2)N1,23.2
2,COc1ccccc1CNS(=O)(=O)c1cc2c3c(c1)CCC(=O)N3CCC2,-17
3,COc1ccc(C(=O)NCCC2=CCCCC2)cc1OC,-3.21
4,O=C(Nc1n[nH]c(C2CCCCC2)n1)C1CCCCC1,-5.38
5,CC(C)(C)NC(=O)C1CCN(C(=O)c2ccco2)CC1,11.1
6,Cc1ccc(C)c(OCc2cc(C(=O)N3CCOCC3)no2)c1,-3.82
7,Cc1cc(C)n2nc(SCc3ccc(F)cc3Cl)nc2n1,-4.5
8,O=C(CC1C(=O)NCCN1Cc1ccc(-c2ccccc2)cc1)NCCc1ccccn1 (stereo not drawn),-12.6
9,Cn1c(Cc2ccc3c(c2)OCO3)nnc1SCC(=O)NC(C)(C)C,22.7
10,COc1ccc(CNC(=S)N/N=C/c2ccc(O)c(OC)c2)cc1,-5.52
11,CC(=O)Nc1ccc(N(C(=O)c2ccco2)C(C(=O)NC2CCCC2)c2cccs2)cc1 (stereo not drawn),6.35
12,Cc1cccc(C)c1Nc1nnc(SCc2nc3ccccc3s2)s1,-15.9
13,Cc1ccc(C(=O)NCCc2nnc3ccc(NCCCN4CCOCC4)nn23)cc1,14.4
14,CCc1cc(OCCN(C)C)ccc1Cl.O=C(O)C(=O)O,17.7
15,O=C(NCc1ccccn1)C(=O)NCc1ccccn1,19.8
16,COc1ccccc1CNC(=O)C1CC(c2ccc([N+](=O)[O-])cc2)=NO1 (stereo not drawn),-12.3
17,COC(=O)c1[nH]c2cc(C)ccc2c1NC(=O)CN1CCN(c2ccccc2OC)CC1,-24.1
18,Cc1ccn2cc(CCNS(=O)(=O)c3ccc4c(c3)OCCO4)nc2c1,-0.964
19,O=C(NCCc1nc2ccccc2[nH]1)c1ccc(Cl)c([N+](=O)[O-])c1,-56.2

row,Compound,"hERG current change (%, negative = inhibition) at 10uM [%]"
1,CCN1CCCC1CNC(=O)C(=O)Nc1ccc(OC)cc1 (stereo not drawn),-5.95
2,CCCCn1c(SCC(=O)NC(=O)Cc2ccccc2)nc2ccccc2c1=O,8.67
3,CC(C)C(=O)N1CCC(Cc2ccccc2)CC1,4.6
4,COc1ccc(-c2nc3n(n2)C(c2ccccc2)C2=C(CCCC2=O)N3)cc1OC (stereo not drawn),-11.3
5,CCOC(=O)/C(C#N)=C\c1cccnc1,20.2
6,COc1cc(/C=N/NC(=O)Cc2nnc(NC(=O)c3ccccc3)s2)ccc1O,8.17
7,COC(=O)c1ccc(C(=O)OC)c(NC(=O)/C=C/C(=O)O)c1,5.06
8,O=[N+]([O-])c1cccc(/C=N/Nc2cc(Cl)nc(-c3ccccc3)n2)c1,4.14
9,Cc1nnc(SCC(=O)Nc2ccccc2)n(N)c1=O,2.08
10,CCC(C)NC(=O)c1cc(Cl)c(NC(=O)C2=C(C)OCCS2)cc1OC (stereo not drawn),-27.7
11,COc1cccc(N2CC(C(=O)Nc3ccc(C(=O)OC(C)C)cc3)CC2=O)c1 (stereo not drawn),9.03
12,CCOc1ccc2[nH]c(=O)c(CN(CC3CCCN3CC)C(=O)NCc3ccccc3)cc2c1 (stereo not drawn),-63.2
13,O=C1CCCc2ccccc2N1,22.3
14,Cc1cc(Nc2ccccc2)nc(N2CCN(C(=O)c3ccc4c(c3)OCO4)CC2)n1,-17.3
15,CCOC(=O)Cc1csc(NC(=O)CSc2nc(-c3ccccc3)c(C#N)c(=O)[nH]2)n1,34.6
16,Nc1c(N=Nc2ccccc2F)c(=O)[nH]n1-c1ccccc1,29.5
17,CC(=O)c1ccc(NC(=O)Nc2sc(NS(=O)(=O)c3ccccc3)nc2C)cc1,15.9
18,Cn1ccnc1SCC(=O)Nc1ccc(Cl)cn1,-14.5
19,Cc1ccc(NC(=O)CSc2nnnn2C2CCCC2)cc1S(=O)(=O)N1CCOCC1,-14.3
